In all, about 33,000 sequences were measured (“E-score (-0.5 to 0.5)”: median about -0.016, highest 2% from about 0.31 on). The list shows a part of the results.

The assay has as its target Cst6 (UniProt P40535). In words: PBM E-score (8-mer binding enrichment) (E-score (-0.5 to 0.5)); higher = stronger / more preferred TF binding; most listed sequences are background and not binding sites. The settings on record: protein concentration: 200 nM; construct: GST-DNA-binding domain. A digest of the protocol: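 The E-score, a modified Wilcoxon-Mann-Whitney statistic, was computed by the Universal PBM Analysis Suite for every ungapped eight-base word pooled with its reverse complement. Scans behind it were normalised with masliner after bound GST-tagged yeast transcription factors were detected with fluorescent anti-GST. The proteins, at about 100-200 nM, had been applied to universal all-10-mer Agilent arrays made double-stranded by primer extension.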
Consider AATCAGGT, for which the “PBM E-score” value worked out at 0.233.

As for AATCTCCC, the “PBM E-score” value is -0.0703.

With AAGTTCAA, the “PBM E-score” value turned out to be 0.0723.

Turning to AGCTACCA, the “PBM E-score” value was -0.118. For CTGTGGCC the value was -0.184. Turning to AGCTGTTC, the “PBM E-score” value was -0.0706. The result for AAACAGGT reads 0.0221. For CAATTAAG the value was 0.0737.

Take GACCGTGA: the “PBM E-score” value worked out at 0.0482. For AAAGCAAA, the “PBM E-score” value was 0.186. In the case of CACCCATC, the “PBM E-score” value is -0.0255.

For TAGGGACA, the “PBM E-score” value was -0.166. For GGAAGAAA the value was 0.095. For AAGAAGGG the value was -0.224. The result for GCCAGGAC reads -0.287; that for AGTTTGGA, 0.0337; that for AAAATATA, 0.262. ATGCAAGG: the “PBM E-score” value is -0.188. Turning to CCCTTTGA, the “PBM E-score” value is -0.0711. The result for GCCGCACA reads 0.23; that for ATATAACC, 0.0717; that for AAACCTAG, -0.252. The result for GCAGCCCA reads -0.283. The result for ACGCCGAT reads 0.0638; that for AGCCAACT, -0.159; that for GAGCGTAA, 0.199. As to GGAAGACC, the “PBM E-score” value is -0.392.

Take AACTGATT: the “PBM E-score” value is 0.0959.

As to CACATAAG, the “PBM E-score” value is -0.00296. For GCAAAGGC the value was -0.126; for CACCGGGA, -0.118; for AGTATACT, -0.089.

Regarding ATTAGAAA, the “PBM E-score” value was determined as 0.138.

AATACGAA: the “PBM E-score” value is 0.106. Turning to CATTTAGC, the “PBM E-score” value was -0.0329.

Take GTAGAAGA: the “PBM E-score” value was -0.056.

Regarding CCGCCCTA, the “PBM E-score” value was -0.191.

For GAAGAGAC, the “PBM E-score” value was -0.114. The result for AACAGCTA reads 0.00217; that for CACAACCC, -0.0948; that for AGCGTGCG, 0.105. The result for CCATATAA reads 0.105. Consider AATCTGCT, for which the “PBM E-score” value is 0.0692. For AGGTTGCC the value was -0.183. For AGGCACCT the value was -0.174. For CCTGGCCC the value was -0.22; for CTCAATCA, 0.0803; for CTAAGTAA, 0.147. Take ACGTAACG: the “PBM E-score” value was 0.39. The result for AGCGCAAG reads -0.163; that for CTCCGTCA, 0.222; that for AGTGGGTC, -0.224. The result for TAATGATA reads 0.387; that for GGTGCCAC, -0.226; that for AAAATGAT, 0.298.

For the sequence CTTTCCCA, the “PBM E-score” value is -0.134. On to ACGCTCTA, for which the “PBM E-score” value was -0.206.

Take CGCTGCGA: the “PBM E-score” value stood at 0.0077. For AGCGTAAC the value was 0.186; for GACGAGTC, -0.125.

Turning to CCGTTACG, the “PBM E-score” value was determined as 0.238. The result for AAAGTTGG reads 0.0124. For GCCCGCGC the value was -0.0241; for AATCGTCA, 0.34; for CAGGCAGG, -0.0868. For CACCCCTG the value was -0.299; for ACCGTAGG, -0.26.

Turning to AATCGTGA, the “PBM E-score” value turned out to be 0.0888. For CGCGTTAA the value was -0.0164. For CGGCGACG the value was 0.164.

For the sequence CCTATCCG, the “PBM E-score” value was -0.206. The result for AGAAAAGG reads 0.0591. For TACATACA the value was 0.167; for GATGATAC, 0.127. The result for ATAAACGG reads 0.221.

GCTAATAA: the “PBM E-score” value was -0.0637. The result for CGCGGTTA reads 0.0396; that for ACGTTTTG, 0.138; that for GGCGAGCA, -0.214.

Consider GTCTAAAA, for which the “PBM E-score” value is -0.0387. For CCGGTGAG the value was -0.116; for GGATTGCA, 0.0154. The result for AAAGGTGA reads -0.0439. The result for GGGAGATA reads -0.186. In the case of CCGATCGC, the “PBM E-score” value is -0.0261. AGAGAATC: the “PBM E-score” value stood at 0.067. CGAACACA: the “PBM E-score” value worked out at 0.00717. The result for TCATCGAA reads 0.21; that for AGTATGAT, 0.235; that for ATAAAAGC, 0.0835. For AGTGGTTC the value was -0.139.

With TTACCAAA, the “PBM E-score” value stood at 0.218. For GATGAGGC the value was -0.171; for ACGTCAGT, 0.472; for GACGTATA, 0.322. For CACGCCAA the value was 0.139; for CACGTCGG, -0.176. Turning to CAATCGGA, the “PBM E-score” value is -0.0214. With CCTGTACG, the “PBM E-score” value was -0.125. For AGTGTCGG the value was -0.143; for ATACTAAG, 0.0167. The result for CCTTGCCA reads -0.0783; that for GAATTCCC, -0.21; that for CCGAGAAA, 0.105.

Regarding ATGCTGCC, the “PBM E-score” value is 0.0106. For ACTAGCAG, the “PBM E-score” value was -0.118. The result for CTGTAGTC reads -0.19; that for AGCTCTAC, -0.186. The result for CCAGCAGC reads -0.176; that for AGGGTCAA, -0.0181.

Values taken from the supplement of paper PMC3334620.
